Earlier results as cited in publication PMC11006913.
This is one part of the list.

Target: T1, HESX1 N125S (Homo sapiens) (UniProt Q9UBX0)
T1 sequence: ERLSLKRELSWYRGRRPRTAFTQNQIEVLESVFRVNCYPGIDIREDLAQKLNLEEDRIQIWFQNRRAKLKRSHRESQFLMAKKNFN
Conditions: PBM; conditions not shown; double strand, one strand shown; scale: upbm affinity estimate (log intensity, higher = more binding, comparable within an allelic series)

Sequence	binding signal
AGGCGCCT [8-mer AGGCGCCT]	7.71
ACCGAGCG [8-mer ACCGAGCG]	7.73
GCCTGCGC [8-mer GCCTGCGC]	7.43
GGACGCCC [8-mer GGACGCCC]	7.42
CAAGCACC [8-mer CAAGCACC]	7.68
CGGCACAG [8-mer CGGCACAG]	7.64
CCCTAAGG [8-mer CCCTAAGG]	7.67
CTGACGCC [8-mer CTGACGCC]	7.44
AGCCCCTG [8-mer AGCCCCTG]	7.75
AGGCCCGG [8-mer AGGCCCGG]	7.73
GGGGGTCA [8-mer GGGGGTCA]	7.56
AAAGACGC [8-mer AAAGACGC]	7.97
CAGTGAGG [8-mer CAGTGAGG]	7.88
CTCCTCTC [8-mer CTCCTCTC]	7.53
AGGACGCC [8-mer AGGACGCC]	7.51
AACCGGGT [8-mer AACCGGGT]	7.83
CGTAGGCC [8-mer CGTAGGCC]	7.69
CCTGGGCA [8-mer CCTGGGCA]	7.76
GCGGGCCA [8-mer GCGGGCCA]	7.7
CGTGCCGA [8-mer CGTGCCGA]	7.5

Sequence	binding signal
GCGCGTCC [8-mer GCGCGTCC]	7.57
CCACGGCC [8-mer CCACGGCC]	7.49
GCCGCTCC [8-mer GCCGCTCC]	7.53
CCCGGGCC [8-mer CCCGGGCC]	7.56
CGACCGGC [8-mer CGACCGGC]	7.71
AGGGAGCG [8-mer AGGGAGCG]	7.54
AGGCAGAC [8-mer AGGCAGAC]	7.89
ACCCCCGC [8-mer ACCCCCGC]	7.66
ATTAGTGG [8-mer ATTAGTGG]	10.1
AGGGCCCG [8-mer AGGGCCCG]	7.49
CCACCATC [8-mer CCACCATC]	7.94
CGGGTACC [8-mer CGGGTACC]	7.82
CAAGCGGC [8-mer CAAGCGGC]	7.59
CATTATTA [8-mer CATTATTA]	10.1
AGGCCAGG [8-mer AGGCCAGG]	7.58
CCGGAGCA [8-mer CCGGAGCA]	7.93
CATGGGCG [8-mer CATGGGCG]	7.59
ACCCACGG [8-mer ACCCACGG]	7.87
CCGGATCG [8-mer CCGGATCG]	7.67
CCGTCTAG [8-mer CCGTCTAG]	7.7
